The other results are listed elsewhere or left out. The list includes weakly bound sequences.
What follows are sequences tested against T1, MBP-FoxP3dN (UniProt Q99JB6) (assay: PD-seq (MBP pull-down with sequencing)). Conditions: 20 mM Tris-HCl pH 7.5, 100 mM NaCl, 1.5 mM MgCl2, 0.4 uM protein, 0.1 uM dsDNA library, 30 min, room temperature, amylose pull-down; high values mean tight binding; double strand, one strand shown.
T1 sequence: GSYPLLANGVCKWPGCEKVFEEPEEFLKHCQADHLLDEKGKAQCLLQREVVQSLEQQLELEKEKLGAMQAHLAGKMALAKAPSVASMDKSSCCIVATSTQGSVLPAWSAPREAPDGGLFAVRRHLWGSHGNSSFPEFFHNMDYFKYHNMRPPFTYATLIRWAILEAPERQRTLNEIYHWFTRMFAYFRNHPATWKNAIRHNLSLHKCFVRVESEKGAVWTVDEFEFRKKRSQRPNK
In the case of “GATGATTGTTCTCCCAGCTGATGAATTTTGGGTTTCGAGTAAACAAATTTTCCTAATCTTTCTGTTCAAGCGCCATCTAC”, the binding signal (RPM ratio (pull-down/input)) is reported as 0.761.
“GATGATTGTTCTCCCAGCTGATGAATTCGAAAGTTCGAGTAAACAAATTTTCCTAATCTTTCTGTTCAAGCGCCATCTAC” gave a binding signal (RPM ratio (pull-down/input)) of 0.244.
“GATGATTGTTCTCCCAGCTGATGAATTACGACCCTCGAGTAAACAAATTTTCCTAATCTTTCTGTTCAAGCGCCATCTAC” was tested, and the binding signal (RPM ratio (pull-down/input)) was 0.443.
“GATGATTGTTCTCCCAGCTGATGAATTTCATCCCTCGAGTAAACAAATTTTCCTAATCTTTCTGTTCAAGCGCCATCTAC” was tested, and the binding signal (RPM ratio (pull-down/input)) was 0.419.
In the case of “GATGATTGTTCTCCCAGCTGATGAATTCGGGGCATCGAGTAAACAAATTTTCCTAATCTTTCTGTTCAAGCGCCATCTAC”, the binding signal (RPM ratio (pull-down/input)) is reported as 0.686.
“GATGATTGTTCTCCCAGCTGATGAATTACGTTAATCGAGTAAACAAATTTTCCTAATCTTTCTGTTCAAGCGCCATCTAC” gave a binding signal (RPM ratio (pull-down/input)) of 0.422.
“GATGATTGTTCTCCCAGCTGATGAATTTTAGGAGTCGAGTAAACAAATTTTCCTAATCTTTCTGTTCAAGCGCCATCTAC” showed a binding signal (RPM ratio (pull-down/input)) of 0.198.
In the case of “GATGATTGTTCTCCCAGCTGATGAATTATGGGGATCGAGTAAACAAATTTTCCTAATCTTTCTGTTCAAGCGCCATCTAC”, the binding signal (RPM ratio (pull-down/input)) is reported as 0.394.
For “GATGATTGTTCTCCCAGCTGATGAATTTGGAGTCTCGAGTAAACAAATTTTCCTAATCTTTCTGTTCAAGCGCCATCTAC”, the binding signal (RPM ratio (pull-down/input)) was 1.26.
Work on “GATGATTGTTCTCCCAGCTGATGAATTATAAGAGTCGAGTAAACAAATTTTCCTAATCTTTCTGTTCAAGCGCCATCTAC” yielded a binding signal (RPM ratio (pull-down/input)) of 0.282.
For “GATGATTGTTCTCCCAGCTGATGAATTTAAACACTCGAGTAAACAAATTTTCCTAATCTTTCTGTTCAAGCGCCATCTAC”, the binding signal (RPM ratio (pull-down/input)) was 0.675.
Work on “GATGATTGTTCTCCCAGCTGATGAATTTCACCGGTCGAGTAAACAAATTTTCCTAATCTTTCTGTTCAAGCGCCATCTAC” yielded a binding signal (RPM ratio (pull-down/input)) of 0.208.
“GATGATTGTTCTCCCAGCTGATGAATTTTCTGCATCGAGTAAACAAATTTTCCTAATCTTTCTGTTCAAGCGCCATCTAC” gave a binding signal (RPM ratio (pull-down/input)) of 0.961.
“GATGATTGTTCTCCCAGCTGATGAATTCCACATCTCGAGTAAACAAATTTTCCTAATCTTTCTGTTCAAGCGCCATCTAC” showed a binding signal (RPM ratio (pull-down/input)) of 0.538.
“GATGATTGTTCTCCCAGCTGATGAATTATGCGCGTCGAGTAAACAAATTTTCCTAATCTTTCTGTTCAAGCGCCATCTAC” gave a binding signal (RPM ratio (pull-down/input)) of 3.33.
In the case of “GATGATTGTTCTCCCAGCTGATGAATTTAACGCATCGAGTAAACAAATTTTCCTAATCTTTCTGTTCAAGCGCCATCTAC”, the binding signal (RPM ratio (pull-down/input)) is reported as 1.01.
“GATGATTGTTCTCCCAGCTGATGAATTGGAAACTTCGAGTAAACAAATTTTCCTAATCTTTCTGTTCAAGCGCCATCTAC” showed a binding signal (RPM ratio (pull-down/input)) of 0.272.
“GATGATTGTTCTCCCAGCTGATGAATTATGCTCTTCGAGTAAACAAATTTTCCTAATCTTTCTGTTCAAGCGCCATCTAC” was tested, and the binding signal (RPM ratio (pull-down/input)) was 0.928.

— article PMC12820563
